Among all 120,000 compounds or so, about 5,300 (4.4%) were called active. The inconclusive results got no clear call from the source; some entries with a clear call stand among them for comparison. Calls follow the shape of the dose curve; as a rule, active = well fitted inhibition curve with a large enough effect; inconclusive = small, poorly fitted or top-dose-only effect; inactive = no such curve, though single readings can be large or run the other way. Potencies beside an inconclusive call are fits to weak or partial responses and may not hold up.
assay: qHTS Primary assay for Inhibitors of Plasmodium falciparum Dd2 growth in vitro; also: nearly all actives have a fitted effect of over 65% in size; details: P. falciparum Dd2 growth, SYBR Green, 72 h; series mostly up to 28.9 µM
In short: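 Infected erythrocytes (Dd2, 0.3% parasitemia, 2.5% hematocrit final) are added to compound in RPMI-1640/Albumax II medium, grown 72 h at 37C in low oxygen, then lysed with saponin/Triton-X containing SYBR Green and read by fluorescence.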
Potency is read from the fitted curve at half-maximal effect; tags tell the direction and shape of the fitted curve.

Question: With `Fc1cccc(CNc2ccc3nnc(-c4ccccn4)n3n2)c1` as the compound, how does the Potency read?
Answer: inconclusive: 0.355 µM [inhibitor, partial curve, poor fit]

Question: With `CS(=O)(=O)N(C1CC1)C1CCOC2(CCN(C(=O)COc3ccc(F)cc3)CC2)C1` (configuration not stated) as the compound, how does the Potency read?
Answer: inactive

Question: Which Potency does the source give for `CN1C(=O)CCC2(CNC(=O)c3cn[nH]c3-c3ccc(F)cc3)CCC=C12` (configuration not stated) here?
Answer: inactive

Question: For `Cc1cc(=O)c2cc(C(=O)Nc3ccc(F)cc3)ccc2[nH]1`, which Potency is on record?
Answer: inconclusive: 17.8 µM [inhibitor, single point]

Question: Which Potency does the source give for `CCN1CCc2nc3sc(C(=O)Nc4ccccc4OC(F)(F)F)c(N)c3cc2C1` here?
Answer: active: 10 µM

Question: With `COCc1cn(C[C@H]2C[C@@H](NS(=O)(=O)CC(C)C)[C@H](O)[C@@H]2O)nn1` as the compound, how does the Potency read?
Answer: inactive

Question: With `CCN1c2cc(C(=O)Nc3cccc(OC)c3)ccc2C(=O)N2CCCCC21` (configuration not stated) as the compound, how does the Potency read?
Answer: inconclusive: 2.51 µM [inhibitor, partial curve]

Question: With `O=C(CN1c2ccc(Br)cc2-c2ccccc2S1(=O)=O)N1CCCCC1` as the compound, how does the Potency read?
Answer: inconclusive: 11.2 µM [inhibitor, partial curve, poor fit]

Question: Which Potency does the source give for `CC(=O)Nc1c(C)nn(-c2ccccc2)c1N1CCC(C(=O)Nc2ccccc2C(F)(F)F)CC1` here?
Answer: inconclusive: 17.8 µM [inhibitor, single point]

Question: With `Cc1ccc(NC(=O)N2CCN(Cc3nc4ccc(C)cc4o3)CC2)cc1` as the compound, how does the Potency read?
Answer: inconclusive: 10 µM [inhibitor, single point]

Question: Which Potency does the source give for `COCCCn1c(SCC(=O)Nc2ccc(F)cc2)nc2c(sc3ccccc32)c1=O` here?
Answer: inconclusive: 17.8 µM [inhibitor, single point]

Question: With `Cc1cc(-c2nn(-c3ccccc3F)cc2CN2CCC(N(C)C)C2)c(C)s1` (configuration not stated) as the compound, how does the Potency read?
Answer: inconclusive: 14.1 µM [inhibitor, partial curve, poor fit]

Question: Which Potency does the source give for `CC(=O)N1CC2(CCN(Cc3c[nH]c4ccccc34)CC2)Cc2ccccc21` here?
Answer: inconclusive: 8.91 µM [inhibitor, partial curve, poor fit]

Question: With `Cn1nccc1-c1nccc2c(=O)cc(N3CCOCC3)oc12` as the compound, how does the Potency read?
Answer: inconclusive: 35.5 µM [inhibitor, single point]

Question: Which Potency does the source give for `Cc1ccc(CNC(=O)c2cccc3c2CCN3C(=O)c2ccc(F)cc2)o1` here?
Answer: inconclusive: 17.8 µM [inhibitor, single point]

Question: For `CC(=O)c1ccc(NC(=O)c2cc3sccc3n2Cc2ccc(Cl)cc2)cc1`, which Potency is on record?
Answer: inconclusive: 11.2 µM [inhibitor, single point]

Question: For `Cc1nc2cccnc2n1CC1CCCN(S(=O)(=O)c2ccccc2)C1` (configuration not stated), which Potency is on record?
Answer: inconclusive: 10 µM [inhibitor, single point]
